According to the supplement of paper PMC12015411:
Bacterial growth in Mueller-Hinton broth at 37 °C with the drug at the dose given, alone or with nitroxoline. Checkerboards on E. coli BW25113: OD600 at the end of exponential growth as a fraction of no-drug wells. Colistin series: OD595 at 10.75 h as a fraction of the colistin-free well. 1 = full growth, lower = more inhibition. No active / inactive call per well. Checkerboard doses stop near each drug's IC75, and their values pile up at 1, as if capped there. Colistin and gentamicin are mixtures; one drawing stands for each.

Test system: Escherichia coli BW25113
Assay: growth relative to no-drug wells (fraction of no-drug control); higher = more growth, less inhibition
Description: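 8 x 8 checkerboard in cation-adjusted Mueller-Hinton broth at 37 °C; OD600 at the end of exponential growth as a fraction of no-drug wells, two biological replicates.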

CCC(C)CCCC(=O)N[C@@H](CCN)C(=O)N[C@H](C(=O)N[C@@H](CCN)C(=O)N[C@H]1CCNC(=O)[C@H]([C@@H](C)O)NC(=O)[C@H](CCN)NC(=O)[C@H](CCN)NC(=O)[C@H](CC(C)C)NC(=O)[C@@H](CC(C)C)NC(=O)[C@H](CCN)NC1=O)[C@@H](C)O (stereo not given in full) [Colistin]
nitroxoline concentration 0 µg/ml
Conditions	growth
0.0798 µg/ml	1
0.1499 µg/ml	0.95
0.2199 µg/ml	0.0121
0.2899 µg/ml	0.01768
0.3599 µg/ml	0.00952
0.43 µg/ml	0.00603
0.5 µg/ml	0.00119

CCC(C)CCCC(=O)N[C@@H](CCN)C(=O)N[C@H](C(=O)N[C@@H](CCN)C(=O)N[C@H]1CCNC(=O)[C@H]([C@@H](C)O)NC(=O)[C@H](CCN)NC(=O)[C@H](CCN)NC(=O)[C@H](CC(C)C)NC(=O)[C@@H](CC(C)C)NC(=O)[C@H](CCN)NC1=O)[C@@H](C)O (stereo not given in full) [Colistin] + Oc1ccc([N+](=O)[O-])c2cccnc12 [nitroxoline]
growth
Conditions	nitroxoline concentration 0.136 µg/ml	nitroxoline concentration 0.255 µg/ml	nitroxoline concentration 0.374 µg/ml	nitroxoline concentration 0.493 µg/ml	nitroxoline concentration 0.612 µg/ml	nitroxoline concentration 0.731 µg/ml	nitroxoline concentration 0.75 µg/ml
0.0798 µg/ml	0.942	0.893	0.879	0.701	0.498	0.485	0.299
0.1499 µg/ml	0.544	0.441	0.399	0.0369	0	0	0
0.2199 µg/ml	0.0287	0	0	0	0.000965	0	0.00164
0.2899 µg/ml	0.00579	0	0	0.00438	0	0	0.000241
0.3599 µg/ml	0	0.000674	0	0	0	0	0.00372
0.43 µg/ml	0	0	0	0.00191	0.00202	0.00655	0.000674
0.5 µg/ml	0	0	0	0	0.000899	0	0

C[C@H]1c2cccc(O)c2C(=O)C2=C(O)[C@]3(O)C(=O)C(C(N)=O)=C(O)[C@@H](N(C)C)[C@@H]3[C@@H](O)[C@@H]21 [Doxycycline]
nitroxoline concentration 0 µg/ml
Conditions	growth
0.065 µg/ml	0.983
0.1125 µg/ml	0.955
0.13 µg/ml	0.856
0.225 µg/ml	0.67
0.26 µg/ml	0
0.45 µg/ml	0.0858
0.52 µg/ml	0.0384

C[C@H]1c2cccc(O)c2C(=O)C2=C(O)[C@]3(O)C(=O)C(C(N)=O)=C(O)[C@@H](N(C)C)[C@@H]3[C@@H](O)[C@@H]21 [Doxycycline] + Oc1ccc([N+](=O)[O-])c2cccnc12 [nitroxoline]
growth
Conditions	nitroxoline concentration 0.136 µg/ml	nitroxoline concentration 0.255 µg/ml	nitroxoline concentration 0.374 µg/ml	nitroxoline concentration 0.493 µg/ml	nitroxoline concentration 0.612 µg/ml	nitroxoline concentration 0.731 µg/ml	nitroxoline concentration 1.1 µg/ml
0.065 µg/ml	0.975	0.867	0.8647	0.655	0.614	0.256	0.109
0.1125 µg/ml	0.872	0.984	0.9935	0.619	0.561	0.27	0.148
0.13 µg/ml	0.892	0.745	0.829	0.6	0.59	0.276	0.172
0.225 µg/ml	0.645	0.607	0.625	0.482	0.333	0.173	0.0998
0.26 µg/ml	0.0141	0.0132	0.0202	0.0132	0.0299	0.0299	0.0281
0.45 µg/ml	0.0733	0.0429	0.0464	0.0517	0.0519	0.0498	0.0368
0.52 µg/ml	0.0495	0.0462	0.0397	0.0483	0.0365	0.0283	0.0289

C[C@@H](O)[C@H]1C(=O)N2C(C(=O)O)=C(S[C@@H]3CN[C@H](C(=O)Nc4cccc(C(=O)O)c4)C3)[C@H](C)[C@H]12 [Ertapenem]
nitroxoline concentration 0 µg/ml
Conditions	growth
0.001 µg/ml	0.813
0.0018 µg/ml	0.731
0.002 µg/ml	0.774
0.0035 µg/ml	0.6516
0.004 µg/ml	0.596
0.007 µg/ml	0.246
0.008 µg/ml	0.104

C[C@@H](O)[C@H]1C(=O)N2C(C(=O)O)=C(S[C@@H]3CN[C@H](C(=O)Nc4cccc(C(=O)O)c4)C3)[C@H](C)[C@H]12 [Ertapenem] + Oc1ccc([N+](=O)[O-])c2cccnc12 [nitroxoline]
growth
Conditions	nitroxoline concentration 0.136 µg/ml	nitroxoline concentration 0.255 µg/ml	nitroxoline concentration 0.374 µg/ml	nitroxoline concentration 0.493 µg/ml	nitroxoline concentration 0.612 µg/ml	nitroxoline concentration 0.731 µg/ml	nitroxoline concentration 0.85 µg/ml
0.001 µg/ml	1	1	0.777	0.601	0.46	0.408	0.312
0.0018 µg/ml	0.968	0.938	0.756	0.539	0.434	0.376	0.328
0.002 µg/ml	0.974	1	0.689	0.5	0.422	0.413	0.309
0.0035 µg/ml	0.734	0.669	0.579	0.484	0.459	0.427	0.317
0.004 µg/ml	0.749	0.797	0.699	0.512	0.406	0.382	0.337
0.007 µg/ml	0.424	0.529	0.475	0.34	0.317	0.318	0.262
0.008 µg/ml	0.305	0.425	0.358	0.245	0.3299	0.2893	0.23

CC[C@H]1OC(=O)[C@H](C)[C@@H](O[C@H]2C[C@@](C)(OC)[C@@H](O)[C@H](C)O2)[C@H](C)[C@@H](O[C@@H]2O[C@H](C)C[C@H](N(C)C)[C@H]2O)[C@](C)(O)C[C@@H](C)C(=O)[C@H](C)[C@@H](O)[C@]1(C)O [Erythromycin]
nitroxoline concentration 0 µg/ml
Conditions	growth
1.1176 µg/ml	0.958
2.098 µg/ml	0.891
3.0784 µg/ml	0.805
4.0588 µg/ml	0.731
5.0392 µg/ml	0.714
6.0196 µg/ml	0.711
7 µg/ml	0.646
